Sequences with one replicate were seen in a single cluster, so their values are uncertain.
system: ATP; assay: switch fluorescence ratio, 500 uM ATP over buffer (Cy3 cluster intensity, sum of 5 cycles each) (fold (ratio)); higher = stronger signal-on switching upon ATP binding; sequences stand for … in TCGTCGGCAGCGTCAGATGTGTATAAGAGACAGTTTTTTTTTTTTTTTTTTTTTTTTT…TC; settings: aptamer strand: ATP DNA aptamer (quencher-CACCTGGGGGAGTATTGCGGAGGAAGG + anchor), 100 nM annealed; ATP concentration: 500 uM; one replicate
Outline: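 Exposure to 500 uM ATP lasted 15 min at 22 °C before imaging, and a selection-buffer image was taken beforehand, for Cy3-labelled switching-strand clusters on a modified Illumina MiSeq flow-cell annealed to 100 nM quencher-labelled ATP aptamer. Five buffer/ATP cycles were run with NaOH stripping and re-annealing between them. The fluorescence ratio per cluster is summed target-cycle over summed buffer-cycle Cy3 intensity, averaged per switch-domain sequence. Clusters outside 100-1000 RFU were excluded.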

Sequence	switch fluorescence ratio
ACTCATTGG	1.03
ACTCATTTGC	1.04
ACTCCATTCA	1.06
ACTCCGGAGT	1.03
ACTCCTTGAA	1.08
ACTCGAGGGT	1.17
ACTCGCATTG	1.78
ACTCGCGCGT	1.03
ACTCGCTTGC	1.86
ACTCTGGGGA	0.991
ACTCTGGGTT	1.05
ACTCTTAGAA	1.01
ACTCTTTTAA	1.04
ACTGAAGTCG	1.05
ACTGAATAGC	0.989
ACTGACGTTT	1.08
ACTGATCTGT	1.05
ACTGATTCCC	1.01
ACTGCAGAG	1
ACTGCTAGCG	1.01
ACTGGAAATC	1.02
ACTGGAATTA	0.997
ACTGGACTTA	1.19
ACTGGCATCG	0.997
ACTGGCTCGG	1.04

Sequence	switch fluorescence ratio
ACTGGGAAGC	1.03
ACTGGGACGT	1.04
ACTGGGATTT	1.01
ACTGGGCGCT	0.992
ACTGGTAAAG	0.984
ACTGGTAATT	1.06
ACTGGTGAGG	1.02
ACTGTAATTG	1.18
ACTGTATCTC	1.13
ACTGTCTAGG	1.01
ACTGTGCGCT	0.983
ACTGTGGGCT	1.01
ACTGTGGTGG	1.01
ACTGTGTAAT	1.02
ACTGTGTGCT	0.994
ACTGTTAAC	1.09
ACTGTTGCGG	0.978
ACTGTTTCG	1.06
ACTTAAGACC	1.06
ACTTACTAGG	1.18
ACTTAGATTC	1.02
ACTTAGGGG	1.05
ACTTATACGG	1.13
ACTTATAGCT	1.03
ACTTATATGC	0.991

Sequence	switch fluorescence ratio
ACTTATTTTA	0.989
ACTTCACGCG	1.09
ACTTCCAGGA	1.07
ACTTCGACTA	1.11
ACTTCGGCGC	1.13
ACTTCGGGCT	0.986
ACTTCGTGTG	0.978
ACTTCGTTGC	1.3
ACTTCTCAAT	1.31
ACTTCTTGGG	0.965
ACTTGAGATG	1.02
ACTTGATCAG	1.02
ACTTGCGATT	1.03
ACTTGTATAC	1.12
ACTTGTATT	1.04
ACTTGTTTTC	0.963
ACTTTATAGC	1.06
ACTTTCAGAC	1.02
ACTTTCGACA	1.17
ACTTTCTGCA	1.06
ACTTTGATCC	1.03
ACTTTGCTGC	1.22
ACTTTGGTGA	0.976
ACTTTTGATT	0.957
ACTTTTTGGT	0.996

Sequence	switch fluorescence ratio
ACTTTTTTTG	1.02
AGAAAAACAG	1.09
AGAAAAAGAC	0.978
AGAAAAGAAG	1.03
AGAAACCACC	1.77
AGAAACCTAA	1.11
AGAAACTGCG	1.04
AGAAAGACGG	0.866
AGAAAGGATC	1.01
AGAAAGGCAC	0.984
AGAAAGTCTT	1.01
AGAAATAAAG	1.01
AGAAATCAGG	0.975
AGAAATGGGT	0.985
AGAAATTT	0.98
AGAACAGTTT	0.939
AGAACCAGCC	1.91
AGAACCCCGG	1
AGAACCGAAG	1.06
AGAACTTCGT	1.02
AGAAGATCGC	0.952
AGAAGCGTGC	1.04
AGAAGCGTTC	1.05
AGAAGGAGCA	1.01
AGAAGTGCTC	1
